Laboratory results: the RNAGym collection of RNA variant scans (doi:10.1093/nar/gkz1192)
The source gives no read counts; variants with many changes may rest on few reads.

B1: CPEB3 Ribozyme (parent)
chain: UAACAGGGGGCCACAGCAGAAGCGUUCACGUCGCAGCCCCUGUCAGAUUCUGGUGAAUCUGCGAAUUCUGCUGUAUAUCUC

Variants of: B1
Experiment: self-cleavage, relative activity (ratio to wild type); higher = more cleavage; in vitro, sequencing
In short: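 Barcoded CPEB3 ribozyme mutants, produced by rounds of error-prone PCR, self-cleaved while being transcribed with T7 RNA polymerase for 5 hours at 37°C and during a subsequent 15 min DNase I step before EDTA was added. Sequencing of template-switched cDNA on Illumina gave cleaved and total reads, and DNA sequencing assigned barcodes to variants. Each variant's relative activity is its cleaved/total read fraction divided by the unmutated ribozyme's fraction, averaged across three batches. A variant needed a minimum of 5 reads.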

Variant	self-cleavage
G9C U26C C38U A65U	0.11
G9C U31A U41C	0.08
G9C U31A U80A	0.26
G9C U31C A56G U72C U80C	0.33
G9C U31C C79U	0.31
G9C U31C U49A A56G U72C	0.05
G9C U31C U60C A75G	0.15
G9C U41C A45C A47G U54C U60A A65U	0.08
G9C U48A U76C	0.09
G9C U49C U60C A64U U72A	0.05
G9C U54A A64G U72A	0.14
G9C U54C A77G U78A	0.05
G9C U54C U74A	0.32
G9C U67G U80C	0.06
G9C U69C C79U	0.25
G9C U72A U78C	0.12
G9U A13C U26C A47G U78C	0.04
G9U A13C U31A A45G A56G U80G	0.04
G9U A13G A21G A35G U54A U80C	0.05
G9U A13G A21G U26C A65U	0.2
G9U A13G A28U A64G	0.23

Variant	self-cleavage
G9U A13G A64U	0.18
G9U A13U A20G U31C U60C U72C U78A	0.06
G9U A13U A56G A57G U66C	0.08
G9U A13U A57G	0.21
G9U A13U G46A U49A A65G	0
G9U A13U U49C	0.13
G9U A15G A20G U54C	0.35
G9U A15G A21G A28G U80C	0.42
G9U A15G A56G U69C U80C	0.12
G9U A15G U25C U26C U67C U76A	0.07
G9U A15G U26C U72C A77G U78C	0.15
G9U A15G U43G G73A U80G	0.27
G9U A15U C44U U66C U72A A77G	0.07
G9U A15U G19U U25C U41C G53A A56C	0.08
G9U A15U U26C A65G U80C	0.04
G9U A15U U60A U80C	0.07
G9U A18C U25C	0.24
G9U A18G A47U G52U	0.07
G9U A18G U41A A45G U54C	0.07
G9U A18G U41C A57G U67C U80A	0.04
G9U A18U A20G U25C	0.05

Variant	self-cleavage
G9U A18U A28C U48C U54C	0.11
G9U A18U A45G U60C G73A	0.06
G9U A20C A21C A57G U58C U72A U78C	0.05
G9U A20C U26C U54C U67C	0.1
G9U A20G A28G U31C A35G U72G	0.03
G9U A20G A35U U58A G63A U78A	0.06
G9U A20G C34U C37U C62U	0.03
G9U A20G U25C	0.2
G9U A20G U26A G33U	0.2
G9U A20G U49C U54C A75G	0.06
G9U A21C U25C G30A U43C	0.11
G9U A21G G30U A65G	0.14
G9U A21U U31A U51G G52A U72A A77C	0.03
G9U A28C C59A	0.08
G9U A28G A56G	0.19
G9U A28U U31A A45G U48C U51A U78C	0.03
G9U A35U A47G	0.07
G9U A35U A57U	0.14
G9U A35U U49G A65G	0.05
G9U A35U U54C A56G U72C	0.07
G9U A45U U78C	0.13

Variant	self-cleavage
G9U A65G U74C U76C	0.07
G9U C11U G42U A56U U60C A65G A77U	0.03
G9U C11U U49A U60C U66C	0.14
G9U C11U U66C U74C U78C	0.06
G9U C12A A56G C62G A65G	0.1
G9U C23A G53A U80C	0.05
G9U C23U G70U	0.03
G9U C29U A35U A45G U49C	0.04
G9U C29U A47G	0.19
G9U C29U U31C A47U	0.06
G9U C32A U54C U60A U69A	0.1
G9U C38U A64G U78C	0.12
G9U C38U U54G U78C	0.21
G9U C40U U54C U74A	0.25
G9U C44U U78C	0.07
G9U G10A A35G A45G U51A	0.2
G9U G10U A13U U31A A64G	0.06
G9U G22A U78C	0.04
G9U G24A G73C	0.29
G9U G24A U25C U31A A64G U72C	0.03
